What was measured:
hIGF-1R(1-462)-Fc = biological target: T1, hIGF-1R(1-462)-Fc (Homo sapiens, UniProt P08069); assay: SPR binding of immobilized antibodies to truncated hIGF-1R(1-462)-Fc versus hIGF-1R(1-903)Fc; conditions: surface immobilized antibody
T1 construct: host or cells: CHO
Excerpt: Next, we investigated whether M13-C06 binds the putative ligand binding domains of IGF-1R (L1-CR-L2). We generated a truncated version of the receptor containing the N-terminal three domains (residues 1-462) fused to an IgG1-Fc and compared its ability to bind M13-C06, M14-C03, and M14-G11 to that of the full-length receptor ectodomain construct, hIGF-1R-Fc, using surface plasmon resonance (SPR).

hIGF-1R-Fc = biological target: T2, hIGF-1R-Fc (Homo sapiens, UniProt P08069); assay: Antibody cross-blocking ELISA with Zenon-labeled αIR3; format: binding
T2 construct: (3) human IGF-1R(1-903)-Fc (hIGF-1R-Fc, Biogen Idec); host or cells: CHO
Protocol: The ability of various antibodies to block murine αIR3 was determined using “Zenon-Fab-HRP” labeled αIR3 and hIGF-1R-Fc. αIR (IgG1) was ZENONO®-Fab-HRP labeled as described by the manufacturer (Invitrogen Cat. No. Z25054). Briefly, 50 μL of 2 μg/mL hIGF-1R-Fc in 1×PBS were coated per well of a 96-well clear MaxiSorp plate (Nunc) for 2 hours at RT (no shaking). Plates were washed with 1×PBS and blocked overnight at 2-8° C. using a PBS/1% BSA solution. Plates were washed and incubated with a 100 μL mixture of Zenon-labeled αIR3 (40 ng/mL) and inhibitor antibody for 1 hour at RT. Inhibitor antibodies were serially diluted (5-fold dilutions) from 40 μg/mL to 3 ng/mL. A control inhibition was performed by serial dilution of a non-IGF-1R specific IgG4 isotype control antibody with Zenon-labeled αIR3. Plates were washed and 100 μL/well SureBlue Reserve TMB Microwell Peroxidase Substrate (KPL, Cat. No. 53-00-01) was added to the wells. Detection of Zenon-labeled αIR3 was performed by reading the absorbance at 650 nm every 5 minutes using a Wallac 1420-041 Multilabel Counter plate reader.

[1] = biological target: T3, recombinant human IGF-1R-10His (Homo sapiens, UniProt P08069); assay: SPR, antibodies and Fabs on IGF-1R-His captured via PENTA-His antibody; format: binding; conditions: full-length antibodies, 64 nM to 0.5 nM
T3 construct: denoted hIGF-1R(1-902)-His10, was purchased from R&D systems (Cat. No. 305-GR-050); purchased R&D Systems 305-GR-050

[2] = biological target: T4, human IGF-1R(1-902)-His10 (Homo sapiens, UniProt P08069); assay: SPR, receptor ectodomain injected over immobilized antibodies: hIGF-1R-His10; format: binding; conditions: full-length fully human antibodies; even at the lowest concentration
T4 construct: human IGF-1R(1-902)-His10 (hIGF-1R-His10 (R&D systems)); purchased R&D systems 305-GR-050
Protocol: SPR analyses were performed using a Biacore3000. The instrument was set to 25° C. and assays performed with running buffer HBS-EP pH 7.2 purchased from Biacore (Biacore, Cat. No. BR-1001-88). The fully human antibodies, M13-C06, M14-C03, and M14-G11 were immobilized to ˜10,000 RU on Biacore CM5 Research Grade Sensor Chip surfaces using the standard NHS/EDC-amine reactive chemistry according to protocols supplied by Biacore. For immobilization, the antibodies were diluted to 40 μg/mL in a 10 mM Acetate pH 4.0 buffer. To investigate the relative kinetics of association and dissociation of the full-length ectodomains of human IGF-1R(1-902)-His10 (hIGF-1R-His10 (R&D systems)) and human INSR(28-956)-His10 (INSR (R&D systems)) to each of the human antibodies, increasing concentrations of hIGF-1R-His10 or INSR were injected over the sensorchip surfaces. The hIGF-1R-His10 concentration series ranged from 1.0 nM to 250 nM while the INSR concentrations ranged from 1.0 nM to 2 μM. All antibody surfaces were reliably regenerated with 100 mM Glycine, pH 2.0. […] Flow rates were 20 μl/min. (“His10” denotes a 10-residue histidine tag on the C-terminus of the constructs.)

hIGF-1R-Fc mutants = assay: Epitope mapping: antibody binding to IGF-1R mutant proteins; design: species or system human
Protocol: Mouse and human IGF-1R share 95% primary amino acid sequence identity. Human IGF-1R and human INSR share 57% identity (73% similarity). […] Twenty of these residues were targeted for mutation because the homologous positions within the INSR ectodomain were exposed to solvent based on the recent INSR crystal structure (pdb code 2DTG, McKern 2006). Accessible surface areas were calculated using StrucTools (http://molbio.info.nih.gov/structbio/basic.html) with a 1.4 Å probe radius.

cynomolgus IGF-1R = assay: Binding to cynomolgus IGF-1R expressed in CHO cells (flow cytometry, confocal); design: species or system cynomolgus monkey
Protocol: The ability of anti-human IGF-1R antibodies to recognize the IGF-1R from non-human primates was tested. First Rhesus and cynomolgus monkey IGF-1R was cloned and expressed in CHO cells. The binding of all antibodies was determined by flow cytometry and confirmed by confocal microscopy.

| Molecule | binding to truncated hIGF-1R(1-462)-Fc compared with full-length hIGF-1R-Fc (hIGF-1R(1-462)-Fc) | αIR3 cross-blocking (hIGF-1R-Fc) | binding to immobilized recombinant human IGF-1R (SPR) [1] | binding of hIGF-1R-His10 to immobilized antibody surface [2] | effect of IGF-1R mutation on antibody binding (hIGF-1R-Fc mutants; residue 248 and 254 (FIG. 37)) | effect of IGF-1R mutation on antibody binding (hIGF-1R-Fc mutants; residue 254) | effect of IGF-1R mutation on antibody binding (hIGF-1R-Fc mutants; residues 28, 227, 237, 285, 286, 301, 327 and 412) | effect of IGF-1R mutation on antibody binding (hIGF-1R-Fc mutants; residues 248 and 250) | effect of IGF-1R mutation on antibody binding (hIGF-1R-Fc mutants; residues 257, 259, 260, 263 and 265) | binding to cynomolgus IGF-1R (cynomolgus IGF-1R) |
| --- | --- | --- | --- | --- | --- | --- | --- | --- | --- | --- |
| M14-G11: anti-IGF1-R antibody, competitive blocker of IGF-1 and IGF-2 (antibody, V domains shown, Antibody variable heavy chain sequence; Antibody variable light chain sequence) VH: EVQLLESGGGLVQPGGSLRLSCAASGFTFSNYPMYWVRQAPGKGLEWVSRISSSGGRTVYADSVKGRFTISRDNSKNTLYLQMNSLRAEDTAVYYCARDRWSRSAAEYGLGGYWGQGTLVTVSS VL: DIQMTQSPDSLAVSLGERATINCKSSQSVLYSSNNKNYLAWYQQKPGQPPKLLIYLASTRESGVPDRFSGSGSGTDFTLTISSLQAEDVAVYYCQQYYSTWTFGQGTKVEIK | equivalent binding | +++ (+++ = 50-70% competition) | strong binding | demonstrated binding | moderate negative affect | moderate negative affect | no detectable affect | strong negative affect | weak negative affect | – |
| M14-G11.G4.P: full-length human IgG4.P version of Fab M14-G11 (antibody, V domains shown) VH: EVQLLESGGGLVQPGGSLRLSCAASGFTFSNYPMYWVRQAPGKGLEWVSRISSSGGRTVYADSVKGRFTISRDNSKNTLYLQMNSLRAEDTAVYYCARDRWSRSAAEYGLGGYWGQGTLVTVSS VL: DIQMTQSPDSLAVSLGERATINCKSSQSVLYSSNNKNYLAWYQQKPGQPPKLLIYLASTRESGVPDRFSGSGSGTDFTLTISSLQAEDVAVYYCQQYYSTWTFGQGTKVEIK | – | – | – | – | – | – | – | – | – | specific binding activity |
